± gives the standard deviation of the averaged measurements. Restriction of a single-cycle SIVsab GFP reporter by TRIM5α v1-loop variants in CRFK cells. Human variants: read share among cells still uninfected after two challenges over input, higher = gained restriction. Rhesus variants: share among infected cells over input, higher = lost restriction. Reporter dose not given per row. No active / inactive call per row; the paper calls a change when both replicates lie above its controls (mean + 2 SD of stop or wild-type variants, or the top frameshift score). Residues outside the varied loop are taken from Swiss-Prot. The paper reads the human single-substitution scores as noise; they and the rhesus combinations repeat poorly (rank correlation 0.3 to 0.4), indel scores repeat only for the top variants, rhesus substitutions well (0.9).
test system: SIVsab (simian immunodeficiency virus of sabaeus monkeys), single-cycle GFP reporter, in CRFK cells; test: enrichment among uninfected cells over input (fold); higher = stronger restriction; conditions: library: human / rhesus combinations
Procedure: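 Pools of CRFK cells expressing variants of the TRIM5α v1 loop were challenged with the single-cycle reporter, sorted by GFP and sequenced; mean of two replicates.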

| Sequence | enrichment |
| --- | --- |
| MASGILVNVKEEVTCPICLELLTQPLSLDCGHSFCQACLTANHKKSMLDKGESSCPVCRISYQPENIRPNRHVANIVEKLREVKLSPEGQKVDHCARHGEKLLLFCQEDGKVICWLCERSQEHRGHHTFLTEEVAREYQVKLQAALEMLRQKQQEAEELEADIREEKASWKTQIQYDKTNVLADFEQLRDILDWEESNELQNLEKEEEDILKSLTNSETEMVQQTQSLRELISDLEHRLQGSVMELLQGVDGVIKRTENVTLKKPETFPKNQRRVFRAPDLKGMLEVFRELTDVRRYWVDVTVAPNNISCAVISEDKRQVSSPKPQIIYQAPGTLYQSFVNFNYCTGILGSQSITSGKHYWEVDVSKKTAWILGVCAGFQPDAMCNIEKNENYQPKYGYWVIGLEEGVKCSAFQDSSFHTPSVPFIVPLSVIICPDRVGVFLDYEACTVSFFNITNHGFLIYKFSHCSFSQPVFPYLNPRKCGVPMTLCSPSS [human TRIM5α, 330-340 = QAPGTLYQSFV] | 0.00408 ± 0.0018 |
| MASGILVNVKEEVTCPICLELLTQPLSLDCGHSFCQACLTANHKKSMLDKGESSCPVCRISYQPENIRPNRHVANIVEKLREVKLSPEGQKVDHCARHGEKLLLFCQEDGKVICWLCERSQEHRGHHTFLTEEVAREYQVKLQAALEMLRQKQQEAEELEADIREEKASWKTQIQYDKTNVLADFEQLRDILDWEESNELQNLEKEEEDILKSLTNSETEMVQQTQSLRELISDLEHRLQGSVMELLQGVDGVIKRTENVTLKKPETFPKNQRRVFRAPDLKGMLEVFRELTDVRRYWVDVTVAPNNISCAVISEDKRQVSSPKPQIIYQAPGTRYTFPSLVNFNYCTGILGSQSITSGKHYWEVDVSKKTAWILGVCAGFQPDAMCNIEKNENYQPKYGYWVIGLEEGVKCSAFQDSSFHTPSVPFIVPLSVIICPDRVGVFLDYEACTVSFFNITNHGFLIYKFSHCSFSQPVFPYLNPRKCGVPMTLCSPSS [human TRIM5α, 330-340 = QAPGTRYTFPSLV] | 0.161 ± 0.035 |

same assay, conditions: library: insertions and deletions

| Sequence | enrichment |
| --- | --- |
| MASGILVNVKEEVTCPICLELLTQPLSLDCGHSFCQACLTANHKKSMLDKGESSCPVCRISYQPENIRPNRHVANIVEKLREVKLSPEGQKVDHCARHGEKLLLFCQEDGKVICWLCERSQEHRGHHTFLTEEVAREYQVKLQAALEMLRQKQQEAEELEADIREEKASWKTQIQYDKTNVLADFEQLRDILDWEESNELQNLEKEEEDILKSLTNSETEMVQQTQSLRELISDLEHRLQGSVMELLQGVDGVIKRTENVTLKKPETFPKNQRRVFRAPDLKGMLEVFRELTDVRRYWVDVTVAPNNISCAVISEDKRQVSSPKPQIIYGARGTRYQTTFVNFNYCTGILGSQSITSGKHYWEVDVSKKTAWILGVCAGFQPDAMCNIEKNENYQPKYGYWVIGLEEGVKCSAFQDSSFHTPSVPFIVPLSVIICPDRVGVFLDYEACTVSFFNITNHGFLIYKFSHCSFSQPVFPYLNPRKCGVPMTLCSPSS [human TRIM5α, 1-codon duplication at 338] | 0.664 ± 0.34 |
| MASGILVNVKEEVTCPICLELLTQPLSLDCGHSFCQACLTANHKKSMLDKGESSCPVCRISYQPENIRPNRHVANIVEKLREVKLSPEGQKVDHCARHGEKLLLFCQEDGKVICWLCERSQEHRGHHTFLTEEVAREYQVKLQAALEMLRQKQQEAEELEADIREEKASWKTQIQYDKTNVLADFEQLRDILDWEESNELQNLEKEEEDILKSLTNSETEMVQQTQSLRELISDLEHRLQGSVMELLQGVDGVIKRTENVTLKKPETFPKNQRRVFRAPDLKGMLEVFRELTDVRRYWVDVTVAPNNISCAVISEDKRQVSSPKPQGARGTRYQTFVNFNYCTGILGSQSITSGKHYWEVDVSKKTAWILGVCAGFQPDAMCNIEKNENYQPKYGYWVIGLEEGVKCSAFQDSSFHTPSVPFIVPLSVIICPDRVGVFLDYEACTVSFFNITNHGFLIYKFSHCSFSQPVFPYLNPRKCGVPMTLCSPSS [human TRIM5α, 3-codon deletion at 327] | 0.571 ± 0.26 |
| MASGILVNVKEEVTCPICLELLTQPLSLDCGHSFCQACLTANHKKSMLDKGESSCPVCRISYQPENIRPNRHVANIVEKLREVKLSPEGQKVDHCARHGEKLLLFCQEDGKVICWLCERSQEHRGHHTFLTEEVAREYQVKLQAALEMLRQKQQEAEELEADIREEKASWKTQIQYDKTNVLADFEQLRDILDWEESNELQNLEKEEEDILKSLTNSETEMVQQTQSLRELISDLEHRLQGSVMELLQGVDGVIKRTENVTLKKPETFPKNQRRVFRAPDLKGMLEVFRELTDVRRYWVDVTVAPNNISCAVISEDKRQVSSPKPQIIYGARQIIYGARGTRYQTFVNFNYCTGILGSQSITSGKHYWEVDVSKKTAWILGVCAGFQPDAMCNIEKNENYQPKYGYWVIGLEEGVKCSAFQDSSFHTPSVPFIVPLSVIICPDRVGVFLDYEACTVSFFNITNHGFLIYKFSHCSFSQPVFPYLNPRKCGVPMTLCSPSS [human TRIM5α, 7-codon duplication at 326] | 0.197 ± 0.14 |
| MASGILVNVKEEVTCPICLELLTQPLSLDCGHSFCQACLTANHKKSMLDKGESSCPVCRISYQPENIRPNRHVANIVEKLREVKLSPEGQKVDHCARHGEKLLLFCQEDGKVICWLCERSQEHRGHHTFLTEEVAREYQVKLQAALEMLRQKQQEAEELEADIREEKASWKTQIQYDKTNVLADFEQLRDILDWEESNELQNLEKEEEDILKSLTNSETEMVQQTQSLRELISDLEHRLQGSVMELLQGVDGVIKRTENVTLKKPETFPKNQRRVFRAPDLKGMLEVFRELTDVRRYWVDVTVAPNNISCAVISEDKRQVSSPKPQIIYGARGTRYQTFTRYQTFVNFNYCTGILGSQSITSGKHYWEVDVSKKTAWILGVCAGFQPDAMCNIEKNENYQPKYGYWVIGLEEGVKCSAFQDSSFHTPSVPFIVPLSVIICPDRVGVFLDYEACTVSFFNITNHGFLIYKFSHCSFSQPVFPYLNPRKCGVPMTLCSPSS [human TRIM5α, 6-codon duplication at 334] | 1.82 ± 2.4 |
| MASGILVNVKEEVTCPICLELLTQPLSLDCGHSFCQACLTANHKKSMLDKGESSCPVCRISYQPENIRPNRHVANIVEKLREVKLSPEGQKVDHCARHGEKLLLFCQEDGKVICWLCERSQEHRGHHTFLTEEVAREYQVKLQAALEMLRQKQQEAEELEADIREEKASWKTQIQYDKTNVLADFEQLRDILDWEESNELQNLEKEEEDILKSLTNSETEMVQQTQSLRELISDLEHRLQGSVMELLQGVDGVIKRTENVTLKKPETFPKNQRRVFRAPDLKGMLEVFRELTDVRRYWVDVTVAPNNISCAVISEDKRQVSSPKPQIIYGARGTRYQTNFNYCTGILGSQSITSGKHYWEVDVSKKTAWILGVCAGFQPDAMCNIEKNENYQPKYGYWVIGLEEGVKCSAFQDSSFHTPSVPFIVPLSVIICPDRVGVFLDYEACTVSFFNITNHGFLIYKFSHCSFSQPVFPYLNPRKCGVPMTLCSPSS [human TRIM5α, 2-codon deletion at 339] | 0.932 ± 0.86 |
| MASGILVNVKEEVTCPICLELLTQPLSLDCGHSFCQACLTANHKKSMLDKGESSCPVCRISYQPENIRPNRHVANIVEKLREVKLSPEGQKVDHCARHGEKLLLFCQEDGKVICWLCERSQEHRGHHTFLTEEVAREYQVKLQAALEMLRQKQQEAEELEADIREEKASWKTQIQYDKTNVLADFEQLRDILDWEESNELQNLEKEEEDILKSLTNSETEMVQQTQSLRELISDLEHRLQGSVMELLQGVDGVIKRTENVTLKKPETFPKNQRRVFRAPDLKGMLEVFRELTDVRRYWVDVTVAPNNISCAVISEDKRQVSSPGTRYQTFVNFNYCTGILGSQSITSGKHYWEVDVSKKTAWILGVCAGFQPDAMCNIEKNENYQPKYGYWVIGLEEGVKCSAFQDSSFHTPSVPFIVPLSVIICPDRVGVFLDYEACTVSFFNITNHGFLIYKFSHCSFSQPVFPYLNPRKCGVPMTLCSPSS [human TRIM5α, 9-codon deletion at 324] | 0.463 ± 0.12 |
